# Experimental data reported in the supplement of paper PMC8728848.
# The list shows a part of the results.
# B1: CV-2L (Chromobacterium violaceum), Q7NX84 (protein)
# chain: MAQQGVFTLPARINFGVTVLVNSAATQHVEIFVDNEPRAAFSGVGTGDNNLGTKVINSGSGNVRVQITANGRQSDLVSSQLVLANKLNLAVVGSEDGTDMDYNDSIVILNWPLG
# Assays:
# Test in all cases: glycan array binding signal (z-score within array); higher = stronger binding
# Conditions in all cases: glycan notation: IUPAC condensed, linker removed
# [1] = target: Fuc(a1-3)[Gal(b1-4)]GlcNAc(b1-2)Man(a1-3)[Fuc(a1-3)[Gal(b1-4)]GlcNAc(b1-2)Man(a1-6)]Man(b1-4)GlcNAc(b1-4)[Fuc(a1-6)]GlcNAc
# Procedure, shortened: (§1)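 Negative Z-scores can be read as non-binding. The Z-score is calculated within each array and then averaged across arrays of one protein sequence at different concentrations or buffers and across linkers. Arrays, 3228 in all, were curated from the Consortium for Functional Glycomics database and kept only where the protein sequence was available.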
# [2] = target: Fuc(a1-3)[Gal(b1-4)]GlcNAc(b1-3)Gal(b1-3)[Fuc(a1-4)]GlcNAc
# Procedure, shortened: as §1
# [3] = target: Fuc(a1-3)[Gal(b1-4)]GlcNAc(b1-3)GalNAc
# Procedure, shortened: as §1
# [4] = target: Fuc(a1-3)[Gal(b1-4)]GlcNAc(b1-4)Gal(b1-4)[Fuc(a1-3)]GlcNAc
# Procedure, shortened: as §1
# [5] = target: Fuc(a1-3)[Gal(b1-4)]GlcNAc(b1-4)Gal(b1-4)[Fuc(a1-3)]GlcNAc(b1-4)Gal(b1-4)[Fuc(a1-3)]GlcNAc
# Procedure, shortened: as §1
# [6] = target: Fuc(a1-3)[Gal(b1-4)]GlcNAc(b1-6)GalNAc
# Procedure, shortened: as §1
# [7] = target: Fuc(a1-3)[Gal(b1-4)]GlcNAc(b1-6)[Gal(b1-3)GlcNAc(b1-3)]Gal(b1-4)Glc
# Procedure, shortened: as §1
# [8] = target: Fuc(a1-3)[Gal(b1-4)]GlcNAc(b1-6)[Neu5Ac(a2-3)Gal(b1-3)]GalNAc
# Procedure, shortened: as §1
# [9] = target: Fuc(a1-3)[Gal(b1-4)]GlcNAc6S
# Procedure, shortened: as §1
# [10] = target: Fuc(a1-3)[Gal3S(b1-4)]GlcNAc
# Procedure, shortened: as §1
# [11] = target: Fuc(a1-3)[Gal3S(b1-4)]GlcNAc6S
# Procedure, shortened: as §1
# [12] = target: Fuc(a1-3)[GalNAc(b1-4)]GlcNAc
# Procedure, shortened: as §1
# Fuc(a1-4)GlcNAc = target: Fuc(a1-4)GlcNAc
# Procedure, shortened: as §1
# Fuc(b1-3)GlcNAc = target: Fuc(b1-3)GlcNAc
# Procedure, shortened: as §1
# Gal(a1-2)Gal = target: Gal(a1-2)Gal
# Procedure, shortened: as §1
# Gal(a1-3)Gal = target: Gal(a1-3)Gal
# Procedure, shortened: as §1
# Gal(a1-3)Gal(b1-3)GlcNAc = target: Gal(a1-3)Gal(b1-3)GlcNAc
# Procedure, shortened: as §1
# [13] = target: Gal(a1-3)Gal(b1-3)GlcNAc(b1-2)Man(a1-3)[Gal(a1-3)Gal(b1-3)GlcNAc(b1-2)Man(a1-6)]Man(b1-4)GlcNAc(b1-4)GlcNAc
# Procedure, shortened: as §1
# [14] = target: Gal(a1-3)Gal(b1-3)GlcNAc(b1-3)GalNAc
# Procedure, shortened: as §1
# [15] = target: Gal(a1-3)Gal(b1-3)[Fuc(a1-4)]GlcNAc(b1-2)Man(a1-3)[Gal(a1-3)Gal(b1-3)[Fuc(a1-4)]GlcNAc(b1-2)Man(a1-6)]Man(b1-4)GlcNAc(b1-4)GlcNAc
# Procedure, shortened: as §1
# Gal(a1-3)Gal(b1-4)Glc = target: Gal(a1-3)Gal(b1-4)Glc
# Procedure, shortened: as §1
# Gal(a1-3)Gal(b1-4)GlcNAc = target: Gal(a1-3)Gal(b1-4)GlcNAc
# Procedure, shortened: as §1
# [16] = target: Gal(a1-3)Gal(b1-4)GlcNAc(b1-3)GalNAc
# Procedure, shortened: as §1
# [17] = target: Gal(a1-3)Gal(b1-4)[Fuc(a1-3)]GlcNAc
# Procedure, shortened: as §1
# [18] = target: Gal(a1-3)Gal(b1-4)[Fuc(a1-3)]GlcNAc(b1-2)Man(a1-3)[Gal(a1-3)Gal(b1-4)[Fuc(a1-3)]GlcNAc(b1-2)Man(a1-6)]Man(b1-4)GlcNAc(b1-4)GlcNAc
# Procedure, shortened: as §1
# Gal(a1-3)GalNAc = target: Gal(a1-3)GalNAc
# Procedure, shortened: as §1
# [19] = target: Gal(a1-3)[Gal(a1-4)]Gal(b1-4)GlcNAc
# Procedure, shortened: as §1
# [20] = target: Gal(a1-4)Gal(b1-3)GlcNAc(b1-2)Man(a1-3)[Gal(a1-4)Gal(b1-3)GlcNAc(b1-2)Man(a1-6)]Man(b1-4)GlcNAc(b1-4)GlcNAc
# Procedure, shortened: as §1
# Gal(a1-4)Gal(b1-4)Glc = target: Gal(a1-4)Gal(b1-4)Glc
# Procedure, shortened: as §1
# Gal(a1-4)Gal(b1-4)GlcNAc = target: Gal(a1-4)Gal(b1-4)GlcNAc
# Procedure, shortened: as §1
# [21] = target: Gal(a1-4)Gal(b1-4)GlcNAc(b1-2)Man(a1-3)[Gal(a1-4)Gal(b1-4)GlcNAc(b1-2)Man(a1-6)]Man(b1-4)GlcNAc(b1-4)GlcNAc
# Procedure, shortened: as §1
# [22] = target: Gal(a1-4)Gal(b1-4)GlcNAc(b1-3)Gal(b1-4)Glc
# Procedure, shortened: as §1
# Gal(a1-4)GlcNAc = target: Gal(a1-4)GlcNAc
# Procedure, shortened: as §1
# Gal(a1-6)Glc = target: Gal(a1-6)Glc
# Procedure, shortened: as §1
# Gal(b1-2)Gal = target: Gal(b1-2)Gal
# Procedure, shortened: as §1
# Gal(b1-3)Gal = target: Gal(b1-3)Gal
# Procedure, shortened: as §1
# Gal(b1-3)Gal(b1-4)GlcNAc = target: Gal(b1-3)Gal(b1-4)GlcNAc
# Procedure, shortened: as §1
# [23] = target: Gal(b1-3)Gal(b1-4)GlcNAc(b1-2)Man(a1-3)[Gal(b1-3)Gal(b1-4)GlcNAc(b1-2)Man(a1-6)]Man(b1-4)GlcNAc(b1-4)GlcNAc
# Procedure, shortened: as §1
# Gal(b1-3)GalNAc = target: Gal(b1-3)GalNAc
# Procedure, shortened: as §1
# [24] = target: Gal(b1-3)GalNAc(a1-3)[Fuc(a1-2)]Gal(b1-4)Glc
# Procedure, shortened: as §1
# [25] = target: Gal(b1-3)GalNAc(a1-3)[Fuc(a1-2)]Gal(b1-4)GlcNAc
# Procedure, shortened: as §1
# [26] = target: Gal(b1-3)GalNAc(b1-3)Gal(a1-4)Gal(b1-4)Glc
# Procedure, shortened: as §1
# [27] = target: Gal(b1-3)GalNAc(b1-4)Gal(b1-4)Glc
# Procedure, shortened: as §1
# [28] = target: Gal(b1-3)GalNAc(b1-4)[Neu5Ac(a2-3)]Gal(b1-4)Glc
# Procedure, shortened: as §1
# Gal(b1-3)GlcNAc = target: Gal(b1-3)GlcNAc
# Procedure, shortened: as §1
binder,measurement,setting,value
B1,glycan array binding signal (z-score),[1],-0.345
same,glycan array binding signal (z-score),[2],0.884
same,glycan array binding signal (z-score),[3],-0.324
same,glycan array binding signal (z-score),[4],-0.267
same,glycan array binding signal (z-score),[5],-0.252
same,glycan array binding signal (z-score),[6],-0.317
same,glycan array binding signal (z-score),[7],-0.288
same,glycan array binding signal (z-score),[8],-0.317
same,glycan array binding signal (z-score),[9],-0.291
same,glycan array binding signal (z-score),[10],-0.3
same,glycan array binding signal (z-score),[11],-0.316
same,glycan array binding signal (z-score),[12],-0.288
same,glycan array binding signal (z-score),Fuc(a1-4)GlcNAc,1.03
same,glycan array binding signal (z-score),Fuc(b1-3)GlcNAc,-0.347
same,glycan array binding signal (z-score),Gal(a1-2)Gal,-0.339
same,glycan array binding signal (z-score),Gal(a1-3)Gal,-0.355
same,glycan array binding signal (z-score),Gal(a1-3)Gal(b1-3)GlcNAc,-0.342
same,glycan array binding signal (z-score),[13],-0.237
same,glycan array binding signal (z-score),[14],-0.335
same,glycan array binding signal (z-score),[15],-0.265
same,glycan array binding signal (z-score),Gal(a1-3)Gal(b1-4)Glc,-0.325
same,glycan array binding signal (z-score),Gal(a1-3)Gal(b1-4)GlcNAc,-0.346
same,glycan array binding signal (z-score),[16],-0.341
same,glycan array binding signal (z-score),[17],-0.297
same,glycan array binding signal (z-score),[18],-0.319
same,glycan array binding signal (z-score),Gal(a1-3)GalNAc,-0.347
same,glycan array binding signal (z-score),[19],-0.336
same,glycan array binding signal (z-score),[20],-0.307
same,glycan array binding signal (z-score),Gal(a1-4)Gal(b1-4)Glc,-0.345
same,glycan array binding signal (z-score),Gal(a1-4)Gal(b1-4)GlcNAc,-0.338
same,glycan array binding signal (z-score),[21],-0.346
same,glycan array binding signal (z-score),[22],-0.35
same,glycan array binding signal (z-score),Gal(a1-4)GlcNAc,-0.329
same,glycan array binding signal (z-score),Gal(a1-6)Glc,-0.347
same,glycan array binding signal (z-score),Gal(b1-2)Gal,-0.339
same,glycan array binding signal (z-score),Gal(b1-3)Gal,-0.348
same,glycan array binding signal (z-score),Gal(b1-3)Gal(b1-4)GlcNAc,-0.349
same,glycan array binding signal (z-score),[23],-0.355
same,glycan array binding signal (z-score),Gal(b1-3)GalNAc,-0.341
same,glycan array binding signal (z-score),[24],-0.341
same,glycan array binding signal (z-score),[25],-0.321
same,glycan array binding signal (z-score),[26],-0.343
same,glycan array binding signal (z-score),[27],-0.343
same,glycan array binding signal (z-score),[28],-0.272
same,glycan array binding signal (z-score),Gal(b1-3)GlcNAc,-0.34
